Measured values published in PubChem BioAssay (NCI).
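In this assay, cells in 96-well plates receive the compound at five concentrations for 48 hours. Endpoints are linearly interpolated between the surrounding concentrations. TGI: concentration producing complete growth inhibition.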 Peptide text beside a SMILES is read from it. * marks the point of attachment. Boc = CC(C)(C)OC(=O)*; OtBu = CC(C)(C)O*

System: NCI-H322M lung
Test: NCI tumour cell line growth inhibition, 48 h

Compound	TGI [µM]
CC(=O)C1=C(C)N2C(=NC3=C(CCc4ccccc43)C2c2ccc(Cl)cc2)S1 (centres undefined)	> 100
NS(=O)(=O)c1ccc(NCc2cccc3c(=O)c4ccc(Cl)cc4oc23)cc1	> 100
Cn1c2ccccc2n2c3ccccc3c3nnc(N)c-3c12	> 100
C/C(=N\NC(N)=O)C(CN1CCOCC1)C(c1ccccc1)c1c(O)c2ccccc2oc1=O (centres undefined)	> 100
CC(C)(C)OC(=O)CC(NC(=O)OC(C)(C)C)C(=O)NC(Cc1ccccc1)C(N)=O (centres undefined) (Boc-Asp(OtBu)-Phe-NH2; configuration not given here)	> 100
CC(=O)O[C@H]1CC[C@@]2(C)C(=CC[C@@H]3[C@@H]2CC[C@]2(C)C(=O)/C(=C\c4ccccc4)C[C@@H]32)C1	> 100
FC(F)(F)c1ccc2c(c1)nc(Cc1ccc(Cl)cc1)n2CC1CCCN2CCCCC12 (centres undefined)	24.8
Cc1c(S(=O)(=O)/N=C(\NO)Nc2ccc(Cl)cc2)sc2ccc(Cl)cc12	31.9
CCOc1cc(NC(C)=O)ccc1C(=O)NN1C(=O)/C(=C/c2ccc(Cl)cc2)N=C1c1ccccc1	> 100
